According to PubChem BioAssay AID540317 (National Center for Advancing Translational Sciences (NCATS), 2011):
In all, about 390,000 compounds went through this assay and about 2,200 (0.56%) were called active. The inconclusive results got no clear call from the source; some entries with a clear call stand among them for comparison. Calls come from the whole dose curve; as a rule, active = well fitted inhibition curve with a large enough effect; inconclusive = small, poorly fitted or top-dose-only effect; inactive = no such curve, though single readings can be large or run the other way. A potency beside an inconclusive call is a rough fit, not a confirmed value.

These compounds were tested against Chromobox protein homolog 1 (Homo sapiens) (UniProt P83916) (assay: HTS for Inhibitors of HP1-beta Chromodomain Interactions with Methylated Histone Tails). Settings: AlphaScreen HP1-beta / biotin-H3K9me3 peptide binding; series mostly up to 114 µM.
Summary of the method: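 AlphaScreen: HP1-beta (50 nM) preformed 30 min with biotin-H3(1-18)K9me3 peptide (50 nM) in PBS pH 7.4, 0.01% Tween-20. Compound added for 30 min at RT, then streptavidin donor/nickel chelate acceptor beads (10 ug/mL) for 30 min.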
Note: nearly all actives have a fitted effect of over 70% in size.
Potency is the fitted concentration of half-maximal effect; tags give direction and shape of the fitted curve.

Sequence of UniProt P83916 (P83916 whole entry, looked up): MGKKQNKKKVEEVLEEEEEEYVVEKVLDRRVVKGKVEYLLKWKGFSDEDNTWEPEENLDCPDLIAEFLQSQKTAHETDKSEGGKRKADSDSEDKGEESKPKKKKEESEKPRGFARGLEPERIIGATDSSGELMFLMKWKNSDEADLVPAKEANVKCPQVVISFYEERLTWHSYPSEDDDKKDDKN

Row | SMILES | Potency
1 | CCOC(=O)c1cccc2c1N[C@@H](c1ccc(F)cc1)[C@H]1CC=C[C@@H]21 | inconclusive: 15.8 µM [inhibitor, full curve]
2 | CCOc1ccc2[nH]c(=O)c(CN(Cc3cccs3)C(CC)c3nnnn3C(C)(C)CC)cc2c1 (configuration not stated) | inconclusive: 5.01 µM [inhibitor, full curve, poor fit]
3 | CC1(C)CC2(CC(c3ccccc3F)c3ccc(O)c(O)c3O2)NC(=S)N1 (configuration not stated) | inconclusive: 50.1 µM [inhibitor, partial curve, poor fit]
4 | S=c1nc(-c2ccccc2Br)[nH][nH]1 | inconclusive: 17.8 µM [inhibitor, full curve]
5 | CC1Cc2ccccc2N1C(=O)CSc1ncc(-c2ccc(F)cc2)n1C (configuration not stated) | inconclusive: 31.6 µM [inhibitor, partial curve]
6 | Cc1ccccc1N1CCN(C(=O)C2CCC(=O)N(C3CCCC3)C2)CC1 (configuration not stated) | inactive
7 | Cc1cc(N2C(=O)C(O)=C(C(=O)c3ccc(C)o3)C2c2ccc(OCc3ccccc3)cc2)no1 (configuration not stated) | inconclusive: 28.2 µM [inhibitor, single point]
8 | Cc1ccc(-n2nc(C)c(Sc3ccccc3[N+](=O)[O-])c2N)cc1 | inconclusive: 35.5 µM [inhibitor, partial curve]
9 | CCN(CC)CCCNC(=O)c1[nH]c2ccccc2c1Sc1ccc(Cl)cc1 | inconclusive: 79.4 µM [inhibitor, partial curve]
10 | CCCc1nn(C)c2c(=O)[nH]c(-c3ccccc3OCC)nc12 | inactive
11 | Cc1nn(-c2ccccc2)c(C)c1C(=O)OCC(=O)NC(=O)NC1CCCCC1 | inconclusive: 25.1 µM [inhibitor, full curve, poor fit]
12 | NS(=O)(=O)c1cccc(NC(=O)CSc2nc3ccccc3c(=O)n2Cc2ccco2)c1 | inactive
13 | COc1ccc(CN2CCCC(C(=O)N3CCCC3)C2)c(OC)c1 (configuration not stated) | active: 50.1 µM
14 | CC(=O)Nc1ccc(S(=O)(=O)N(C)CC(=O)OCC(=O)N2CC(C)OC(C)C2)cc1 (configuration not stated) | inactive
15 | Cc1cc(C(c2nnnn2Cc2ccccc2)N2CCOCC2)c(C)n1-c1ccc2c(c1)OCO2 (configuration not stated) | inconclusive: 50.1 µM [inhibitor, partial curve]
16 | c1ccc(C(CN2CCOCC2)c2ccccc2)cc1 | inconclusive: 56.2 µM [inhibitor, partial curve]
17 | O=C1C2C3C=CC(C4CC34)C2C(=O)N1/N=C/c1ccc(-c2ccccc2[N+](=O)[O-])o1 (configuration not stated) | inconclusive: 28.2 µM [inhibitor, partial curve, poor fit]
18 | Cc1ccc(OCCCSc2nc(-c3ccc(C(C)(C)C)cc3)nc3cc(=O)[nH]n23)cc1C | inconclusive: 70.8 µM [inhibitor, partial curve]
19 | C=CCN(CC=C)CCCOc1ccc(C)cc1OC | inconclusive: 15.8 µM [inhibitor, full curve]
20 | Cc1ccc(S(=O)(=O)N2CCOCC2)cc1C(=O)N1CCC(Cc2ccccc2)CC1 | inconclusive: 89.1 µM [inhibitor, partial curve, poor fit]
21 | COC(=O)c1ccccc1NC(=O)N1CCN(c2ccc(OC)cc2)CC1 | inconclusive: 50.1 µM [inhibitor, partial curve]
22 | COC(=O)CCC(=O)Nc1nccs1 | inconclusive: 89.1 µM [inhibitor, single point]
23 | Cc1ccc(C(NC(=O)c2cccc(S(=O)(=O)N3CCN(C)CC3)c2)c2ccccc2)cc1 (configuration not stated) | inactive

Row | SMILES | Potency
24 | O=C(CCc1ccco1)CCc1ccco1 | inconclusive: 70.8 µM [inhibitor, partial curve]
25 | CCN1CCN(c2ccc(S(=O)(=O)N3CCCCC3)cc2NC(=O)/C=C/c2ccc(Cl)cc2)CC1 | inactive
26 | CCOc1ccc(C(=O)NCC(c2ccc3c(c2)OCO3)N2CCN(c3ccc(F)cc3)CC2)cc1 (configuration not stated) | inactive
27 | CCCCn1c(-c2ccc([N+](=O)[O-])cc2)n[nH]c1=S | inconclusive: 50.1 µM [inhibitor, partial curve]
28 | COc1ccccc1-n1c(-c2cccnc2)n[nH]c1=S | inactive
29 | Cc1n[nH]c(=S)n(NC(=O)/C=C/C(=O)Nn2c(=S)[nH]nc(C)c2=O)c1=O | inconclusive: 56.2 µM [inhibitor, partial curve, poor fit]
30 | CCN1CCN(CC2COc3ccccc3O2)CC1 (configuration not stated) | inactive
31 | O=C(CNc1ccc(Oc2ccccc2)cc1)N1CCOCC1 | inconclusive: 15.8 µM [inhibitor, full curve, poor fit]
32 | CC(C)C(=O)N1c2nc(C(C)C)nn2C2(CCCCC2)[C@@H]2CCCC[C@@H]21 | inactive
33 | O=c1cc[nH]c2c1ccc1c(=O)cc[nH]c12 | inactive
34 | CCOC(=O)c1cnc2ccc(C(=O)OC)cc2c1Nc1ccc(N2CCOCC2)cc1 | inconclusive: 44.7 µM [inhibitor, partial curve]
35 | COc1ccc(C2(c3ccc(OC)cc3)NC(=O)N(CC(=O)Nc3ccccc3)C2=O)cc1 | inconclusive: 79.4 µM [inhibitor, single point]
36 | Cc1cc(Br)c(NC(=O)CN2CCCC2)c(Br)c1 | inactive
37 | O=C(N/N=C/c1ccc(OC(=O)c2ccccc2)cc1)c1cccnc1 | inconclusive: 79.4 µM [inhibitor, single point]
38 | COC(=O)c1ccc(C(=O)OC)c(NC(=O)COC(=O)C2CC2C)c1 (configuration not stated) | inactive
39 | CC1(C)Cc2c(C#N)c(OCC(=O)c3ccccc3)nc(-c3ccoc3)c2CO1 | inconclusive: 39.8 µM [inhibitor, single point]
40 | Cc1cc(OCC(=O)Nc2ccc(S(=O)(=O)N3CCN(C)CC3)cc2)ccc1Br | inconclusive: 79.4 µM [inhibitor, single point]
41 | C=CCN(CC=C)Cc1c(O)ccc2c1oc(=O)c1ccccc12 | inconclusive: 70.8 µM [inhibitor, single point]
42 | COc1ccc(OC)c(S(=O)(=O)N2CCN(Cc3ccccc3)CC2)c1 | inactive
43 | O=C(Nc1ccc(O)cc1)/C(=C\C=C\c1ccccc1)NC(=O)c1ccccc1 | inactive
44 | COC(=O)[C@H](CC(C)C)NC(=O)c1cc2c(cn1)[nH]c1ccccc12 | inconclusive: 7.94 µM [inhibitor, full curve]
45 | N=C(N)SCCN | inactive
46 | CCCN(C(=O)COC(=O)CSc1ccc([N+](=O)[O-])cc1)C1CCS(=O)(=O)C1 (configuration not stated) | inconclusive: 44.7 µM [inhibitor, partial curve]

Row | SMILES | Potency
47 | N#Cc1c(/N=C/c2cccs2)sc2c1CCC2 | inconclusive: 17.8 µM [inhibitor, full curve]
48 | CC(C)NS(=O)(=O)c1cc(F)ccc1CN1C(=O)c2cccnc2C1=O | inactive
49 | CS(=O)(=O)N1CCN(C2C3CC4CC(C3)CC2C4)CC1 (configuration not stated) | inconclusive: 15.8 µM [inhibitor, partial curve, poor fit]
50 | Nc1ccc2cc3[nH]c4cc(N)ccc4c3nc2c1 | inconclusive: 70.8 µM [inhibitor, single point]
51 | CC(=O)c1ccc(NC(=O)Nc2ccc3c(c2)N(C)C(=O)CS3)cc1 | inconclusive: 25.1 µM [inhibitor, full curve, poor fit]
52 | CNc1nc(-c2c(C)n(C)c3ccc(OC)cc23)cs1 | inconclusive: 50.1 µM [inhibitor, partial curve]
53 | Cc1cc(Cl)ccc1OCC(=O)N(Cc1ccc(N(C)C)cc1)CC1CCCO1 (configuration not stated) | inconclusive: 15.8 µM [inhibitor, full curve, poor fit]
54 | Cc1cccc(S(=O)Cc2ccc(C(=O)NC3CCCCCC3)o2)c1 (configuration not stated) | inactive
55 | COc1ccc(C(=NNc2ccccc2C(=O)O)c2ccc(OC)cc2)cc1 | inconclusive: 28.2 µM [inhibitor, single point]
56 | O=C(NCCNc1ccc([N+](=O)[O-])cc1C(F)(F)F)c1ccccc1F | inconclusive: 89.1 µM [inhibitor, single point]
57 | Cc1cc(NC(=O)CCC(=O)N(Cc2ccco2)C2(C(=O)NC3CCCCC3)CCN(C)CC2)no1 | inactive
58 | CCN(c1ccc(NC(=O)COC(=O)c2cc3ccccc3oc2=O)cc1)C(C)C | inconclusive: 20 µM [inhibitor, full curve]
59 | Cc1cccc2c1N(CCCOc1ccc(C(C)(C)C)cc1)C(=O)C2=O | inconclusive: 11.2 µM [inhibitor, full curve]
60 | O=C1c2ccccc2C(=Nc2ccccc2)C1c1cccc(Br)c1 (configuration not stated) | inconclusive: 7.94 µM [inhibitor, full curve]
61 | CCCn1c(SCC(=O)N2CCCCC2)nnc1C(C)C | inconclusive: 11.2 µM [inhibitor, single point]
62 | O=C(Nc1ccccc1N1CCOCC1)c1cc(-c2ccco2)nc2ccccc12 | inconclusive: 44.7 µM [inhibitor, partial curve]
63 | CCOc1cccc(-c2nn(-c3ccccc3)cc2/C=C(/C#N)C(=O)NCCCn2ccnc2)c1 | inconclusive: 50.1 µM [inhibitor, partial curve]
64 | CN1/C(=C/c2cc[n+](C)c3ccccc23)C=Cc2ccccc21 | inconclusive: 56.2 µM [inhibitor, partial curve, poor fit]
65 | O=c1c2ccccc2sn1-c1cc(S(=O)(=O)N2CCOCC2)ccc1N1CCCCC1 | inconclusive: 39.8 µM [inhibitor, single point]
66 | COC(=O)c1c(-c2cccs2)csc1NC(=O)c1cc(OC)c(OC)c(OC)c1 | inconclusive: 6.31 µM [inhibitor, full curve]
67 | CCCCCOC(=O)c1[nH]c2c(c1C)C(=O)CC(c1ccco1)C2 (configuration not stated) | inconclusive: 44.7 µM [inhibitor, partial curve, poor fit]
